# Experimental data reported in PubChem BioAssay AID894 (National Center for Advancing Translational Sciences (NCATS), 2007).
# Screen size: about 150,000 compounds; about 6,500 (4.3%) were called active. Inconclusive results, whose numbers are uncertain, are shown with a selection of clear calls. Calls follow the shape of the dose curve; as a rule, active = well fitted inhibition curve with a large enough effect (not every such curve was filed as active); inconclusive = small, poorly fitted or top-dose-only effect, or another doubt; inactive = no such curve, though single readings can be large or run the other way. Potencies of inconclusive entries are left out as doubtful fits.
# Biological target: 15-hydroxyprostaglandin dehydrogenase [NAD(+)] (Homo sapiens) (UniProt P15428)
# Sequence of UniProt P15428 (P15428 whole entry, looked up): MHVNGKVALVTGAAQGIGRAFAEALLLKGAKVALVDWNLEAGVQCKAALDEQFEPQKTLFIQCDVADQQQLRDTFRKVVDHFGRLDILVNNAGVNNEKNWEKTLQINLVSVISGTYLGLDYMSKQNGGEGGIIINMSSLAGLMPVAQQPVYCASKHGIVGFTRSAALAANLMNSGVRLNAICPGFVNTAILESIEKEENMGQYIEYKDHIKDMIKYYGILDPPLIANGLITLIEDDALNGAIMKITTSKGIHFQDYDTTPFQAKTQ
# Experiment: qHTS Assay for Inhibitors of HPGD (15-Hydroxyprostaglandin Dehydrogenase)
# Conditions: purified HPGD, NADH fluorescence kinetic, PGE2 substrate; activity change, negative = inhibition: stronger effect = lower value
# In short: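 20 nM HPGD preincubated 15 min at room temperature with compound in 50 mM Tris-HCl pH 8, 0.01% Tween 20. Started with 1 mM NAD+ and 30 uM prostaglandin E2; NADH fluorescence (360/450 nm) read 5 times over 30-s intervals, last minus first.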
# % is scaled to controls: 0 for no effect and ±100 for the full control effect; potency is read from the fitted curve at half-maximal effect; tags tell the direction and shape of the fitted curve.
SMILES,Potency,"activity change, negative = inhibition"
COc1ccc(C(=O)Nc2ccccc2C(=O)NC(Cc2ccc(O)cc2)C(=O)NNC(=O)c2ccc(C)cc2)cc1 (configuration not stated),"inconclusive [inhibitor, partial curve]",
C=CCSc1nc2sc3c(c2c(=O)n1CC)CCc1ccccc1-3,active: 2.24 µM,
COc1ccccc1NC(=O)Cn1nnc(-c2ccccc2NC(=O)c2ccco2)n1,"inconclusive [inhibitor, partial curve]",
O=C(Nc1ncc(S(=O)(=O)c2ccc([N+](=O)[O-])cc2)s1)c1ccc2ccccc2c1,,inactive: -7.49%
CN(C)c1ccc(CNC2CC(C)(C)NC(C)(C)C2)cc1,,inactive: -9.61%
O=C(COC(=O)COc1ccc(Cl)cc1)NCc1cccs1,"inconclusive [inhibitor, partial curve]",
O=C(COC(=O)c1ccccc1Nc1ccccc1)Nc1ccccc1,"inconclusive [inhibitor, partial curve]",
Cc1cc2cc(C(c3nnnn3C3CCCC3)N(Cc3cccnc3)Cc3ccco3)c(=O)[nH]c2cc1C (configuration not stated),"inconclusive [inhibitor, single point]",
CCN(CC)c1ccc(NC(=O)CSc2nnc3nc(C)cc(C)n23)cc1,active: 15.8 µM,
CCCC(=O)Nc1ccc(C(=O)N2CCCC2)cc1,active: 14.1 µM,
COC(=O)CSc1ccc2nnc(-c3ccc(OC)c(OC)c3)n2n1,"inconclusive [inhibitor, partial curve]",
CCCNC(=O)c1ccc2snnc2c1,,inactive: -16.1%
CCOC(=O)Cc1cc(=O)n2[nH]c(-c3ccccc3)cc2n1,"inconclusive [inhibitor, partial curve]",
O=C(N/N=C/c1cccs1)C1CC(=O)N(c2ccccc2)C1 (configuration not stated),"inconclusive [inhibitor, partial curve, poor fit]",
CCCCNc1c2c(nc3c(-c4ccccc4)c(C)nn13)CCC2,"inconclusive [inhibitor, partial curve]",
Oc1cc(CN2COc3ccccc32)c(O)cc1CNC1CCCCC1,active: 1.58 µM,
Cc1cc(C)n(-c2nc3ccccc3nc2NCCc2ccccc2)n1,"inconclusive [inhibitor, partial curve]",
COc1ccc(C(=O)N/N=C/c2ccc(OC)c(CSc3ccccn3)c2)cc1,active: 31.6 µM,
O=C(c1ccc(C(F)(F)F)cc1)N1CCC(=O)N(C(COCc2ccc(C(F)(F)F)cc2)Cc2ccccc2)CC1 (configuration not stated),"inconclusive [inhibitor, full curve]",
O=C1CCCC2=C1C(c1ccc(OS(=O)(=O)c3ccc(Cl)cc3)cc1)C1=C(CCCC1=O)O2,,inactive: -15%
CCOC(=O)c1c(N)sc2c1CCCC2,"inconclusive [inhibitor, partial curve, poor fit]",
OB(O)c1ccc(Cl)s1,,inactive: -1.85%
Cc1ccc(-n2nnnc2C(Cl)(Cl)c2nnnn2-c2ccc(C)cc2)cc1,active: 3.55 µM,
COC(=O)c1ccc(-c2ccco2)n1Cc1nc(-c2ccc(OC)c(OC)c2)oc1C,"inconclusive [inhibitor, single point]",
CCOc1ccc(/C=C/C(=O)c2cccs2)cc1,"inconclusive [inhibitor, partial curve]",
CC(C)C(=O)Nc1ccc(-c2nc3cccnc3o2)cc1,"inconclusive [inhibitor, partial curve]",

SMILES,Potency,"activity change, negative = inhibition"
O=[N+]([O-])c1ccc(O)c(-c2nn[nH]n2)c1,,inactive: -27.5%
CCCCn1cnc2cc(NCc3ccncc3)ccc21,"inconclusive [inhibitor, partial curve]",
Nc1ccccc1C(=O)Nc1cccc(C(=O)O)c1,"inconclusive [inhibitor, single point]",
COc1cccc(Cn2nnc(C(=O)Nc3cc(C)ccc3OC)c2N)c1,"inconclusive [inhibitor, partial curve]",
N#Cc1nc(-c2ccc(Cl)cc2)oc1N1CCCCC1,"inconclusive [inhibitor, partial curve]",
O=C(O)c1ccc(-n2nnnc2SCc2ccccc2)cc1,active: 20 µM,
CCCCOc1cccc(NC(=O)CSc2nccn2C)c1,,inactive: -8.69%
COc1cc2c(cc1OC)C1=C(C#N)CCC(=NC(=O)c3ccc(Cl)cc3)N1CC2,active: 14.1 µM,
Cc1nnc2sc(-c3ccc(-c4ccc(Cl)c(C(F)(F)F)c4)o3)nn12,"inconclusive [inhibitor, partial curve]",
Cc1ccccc1CSCC(=O)NCc1ccco1,active: 11.2 µM,
COc1ccc(COc2cc(-c3cccc(OC)c3)nc3ccc(NC(=O)C(C)C)cc23)cc1,"inconclusive [inhibitor, partial curve]",
COCCn1c(=O)c(C)nc2cnc(N3CCNCC3)nc21,"inconclusive [inhibitor, partial curve]",
N#C/C(=C/c1ccc(N2CCOCC2)o1)c1ccc(Cl)cc1,"inconclusive [inhibitor, single point]",
Clc1cccc(-c2nn3c(Cn4cnc5ccccc54)nnc3s2)c1,active: 25.1 µM,
CCC(=O)c1c(O)cc(O)cc1O,,inactive: -18.1%
Fc1ccc(F)c(C2=NNC(=Nc3ccccc3F)SC2)c1,active: 15.8 µM,
CC(C)OC(=O)n1c(=S)oc2ccccc21,"inconclusive [inhibitor, partial curve]",
N#Cc1ccc2ccn(CC(=O)NCc3ccccc3)c2c1,"inconclusive [inhibitor, partial curve]",
COCCNC(=O)CSc1nc2ccccc2c2nc(C)nn12,"inconclusive [inhibitor, single point]",
O=C(NCCC(c1ccccc1)c1ccccc1)c1cnccn1,"inconclusive [inhibitor, single point]",
COc1ccc(CNC(=O)[C@H](C)NC(=O)C2CCN(S(=O)(=O)c3ccc(C)cc3)CC2)cc1,,inactive: -9.73%
Cc1onc(-c2ccccc2)c1C(=O)Nc1nnc(N2CCCCCC2)s1,,inactive: -16.8%
COc1ccc(CNc2nc(SCC(=O)NCc3ccco3)nc3ccccc23)cc1,active: 10 µM,
COc1ccc2cc(C(=O)NC3CCCCC3)c(=O)oc2c1,"inconclusive [inhibitor, partial curve]",
CN(C)c1ccc(C(=O)/C=C/c2ccco2)cc1,active: 31.6 µM,
CCc1noc2c1/C(=N\O)CC(c1ccccc1)C2 (configuration not stated),,inactive: -14.7%

SMILES,Potency,"activity change, negative = inhibition"
O=C(O)c1ccc(Cl)c2c1C1C=CCC1C(c1ccccn1)N2 (configuration not stated),"inconclusive [inhibitor, partial curve]",
O=C(NCc1ccco1)C(c1cccs1)N(Cc1ccccc1)C(=O)Cn1nnc2ccccc21 (configuration not stated),,inactive: -4.87%
CCc1ccc(C(=O)COC(=O)CCc2nc3ccccc3c(=O)[nH]2)cc1,,inactive: -10.5%
CCCc1cc(NCCCCO)n2c(nc3ccccc32)c1C#N,"inconclusive [inhibitor, partial curve]",
COc1ccc(C2CC(c3c(O)cc(C)oc3=O)=NCCS2)c(OC)c1 (configuration not stated),active: 15.8 µM,
Cc1ccccc1-c1nnc(-c2ccc(Cl)cc2)o1,"inconclusive [inhibitor, partial curve, poor fit]",
COC(=O)c1c(NC(=O)Cn2nc(C(F)F)cc2C(F)F)sc(C)c1C,active: 28.2 µM,
CCCCCCCCCCCNC(=O)c1ccoc1C,,inactive: -18.1%
CCc1nnc(SCC(=O)NC2CCCC2)nc1CC,active: 15.8 µM,
CCOC(=O)C1=C(N)N2C(=O)C(C)SC2=C(C(=O)OCC)C1c1ccccc1 (configuration not stated),"inconclusive [inhibitor, partial curve]",
Oc1ccc(C(=S)N2CCCCC2)cc1,"inconclusive [inhibitor, partial curve]",
FC(F)(F)c1ccc(N2CCN(c3ncnc4c3nnn4Cc3ccccc3)CC2)nc1,"inconclusive [inhibitor, partial curve]",
O=C(O)c1ccc(Cl)c(S(=O)(=O)Nc2ccccc2F)c1,,inactive: -6.95%
CCC(CC)C(=O)Nc1nnc(-c2cccs2)s1,"inconclusive [inhibitor, partial curve]",
COc1ccc(CCN/C=C2/CC(=O)NC2=O)cc1OC,,inactive: -29.8%
S=C(NCc1cccnc1)Nc1ccc(Cl)c(Cl)c1,active: 14.1 µM,
Cc1cccc(OCC(=O)N2CCOCC2)c1,,inactive: -8.56%
CCOC(=O)c1oc2ccccc2c1NC(=O)c1cccc(OC)c1OC,"inconclusive [inhibitor, partial curve]",
COc1ccc(C(=O)/C=C/Nc2ccccn2)cc1,"inconclusive [inhibitor, partial curve]",
c1ccc2c(c1)OCC(c1csc3ncnc(N4CCOCC4)c13)O2 (configuration not stated),,inactive: -4.94%
C=CCn1c(SCc2c(C(=O)OC)sc(N)c2C(=O)OC)nnc1-c1ccc(Br)cc1,"inconclusive [inhibitor, single point]",
O=C(CSCc1c(Cl)cccc1Cl)NCc1ccco1,active: 8.91 µM,
O=CNNC(=O)c1cccc([N+](=O)[O-])c1,,inactive: -5.32%
Cc1[nH]c(=S)sc1Cc1ccc(Cl)c(Cl)c1,active: 15.8 µM,
O=C(CSc1ccc(-c2cccs2)nn1)NCc1ccccc1Cl,active: 31.6 µM,
